Results as given in US4493843A, “Indole and indoline carboxylic acid compounds and method of use” (May & Baker Limited, priority 1980, dated 1985).
Where “and” joins values, the source holds several entries; their conditions need not be identical. Equal values may be shown once. Where a name gives a salt, the structure may show the parent alone. The name of at least one read-out is uncertain.

Key:
[1] = system: Smooth muscle cells from explants of pig thoracic aorta; test: Aortic smooth muscle cell proliferation inhibiting activity; type: cell-based; conditions: 5 μg/ml medium; six or seven day incubation; each value mean of four dishes
Procedure: Aortic smooth muscle cell proliferation inhibiting activity
Smooth muscle cells were grown in culture from explants of pig thoracic aorta, using Dulbecco's Modified Eagles (DME) Medium containing 20% foetal calf serum (FCS) and antibiotics. The cells were incubated at 37° C. in an atmosphere of 95% air and 5% carbon dioxide. At confluency the cells were routinely subcultured by trypsinising and replating at approximately one third of their confluent density in DME Medium containing 10% FCS and antibiotics.
The smooth muscle cells were plated out at densities of 100,000-200,000 cells per 35×10 mm Falcon dish in 2 ml DME Medium containing 10% FCS and antibiotics. After 24 hours, when the cells had attached to the dishes, the medium was replaced with 2 ml DME Medium containing 1% FCS and antibiotics. The cultures were incubated for a further three days to allow the cells to become quiescent (i.e. no longer undergoing cell division). The medium was then replaced by 2 ml control or test medium. The test medium consisted of DME Medium (containing 10% FCS and antibiotics) and the compound to be tested at a concentration of 5 μg/ml medium. The compounds were pre-dissolved in acetone such that the final concentration of acetone in the medium was 0.2% (v/v). The control medium consisted of DME Medium (containing 10% FCS and antibiotics) and acetone at 0.2% (v/v) concentration. After three days incubation in test or control medium, the medium was replaced with fresh test or control medium and the cells incubated for a further three or four days. At the end of the six or seven day incubation period cell numbers were determined by trypsinising the cells and counting the cell suspension in a Coulter counter.
All results in Table II hereafter represent the mean value for four dishes of cells. Percentage inhibition of proliferation was calculated using the following formula: [formula] where S=Mean cell number per dish at start of experiment (upon addition of control or test medium).
T=Mean cell number per dish in test cultures at completion of experiment.
C=Mean cell number per dish in control cultures at completion of experiment.

[2] = system: serum cholesterol and serum triglycerides; test: Hypolipidaemic activity in rats (compound in diet, last 7 of 10 days); type: in vivo, Male Wistar rats; conditions: oral, 7 days
Procedure: Hypolipidaemic Activity in Rats
Male Wistar rats each weighing between 120 and 150 g were caged in groups of eight and fed a powdered diet for 10 days. For the last 7 days of that period the test compound was administered orally by mixing the compound in the diet and allowing the animals to feed normally. Food consumption was measured on day 9 for each group.
At noon on day 10 the animals were killed by inhalation of carbon dioxide from solid carbon dioxide. A sample of blood was removed by cardiac puncture and the serum cholesterol and serum triglycerides were analysed by means of an autoanalyser.
Control groups (receiving only the normal, unmedicated diet) were included with each test.
The percentage reductions in the concentrations of serum cholesterol and serum triglycerides were calculated by comparison with the simultaneous controls, for each concentration of the test compound used.

SMILES	% inhibition (of proliferation) [1]	% change in serum triglycerides compared with control ([2]; 0.2 % w/w dose in diet)	further results
CCCCCCCCCCCC1Cc2cc(C(=O)O)ccc2N1 (racemic) [Compound YY, (RS)-2-(n-undecyl)indoline-5-carboxylic acid]	78% and 76% and 46%		
CCCCCCCc1cc2ccc(C(=O)OCC)cc2[nH]1 [Compound AJJ, ethyl 2-(n-heptyl)indole-6-carboxylate]	30%		
CCCCCCCCCCCc1cc2ccc(C(=O)O)cc2[nH]1 [Compound C, 2-(n-undecyl)indole-6-carboxylic acid]	69% and 45%		
CCCCCCCCCCCCCCCc1cc2ccc(C(=O)O)cc2[nH]1 [Compound D, 2-(n-pentadecyl)indole-6-carboxylic acid]		-40% and -30%	% change in serum cholesterol compared with control ([2]; 0.2 % w/w dose in diet): -26% and -16%
CCCCCCCCCCCCCCCc1cc2cc(C(=O)O)ccc2[nH]1 [Compound G, 2-(n-pentadecyl)indole-5-carboxylic acid]	36%	-87% and -89%	% change in serum cholesterol compared with control ([2]; 0.1 % w/w dose in diet): -43% and -47%; % change in serum triglycerides compared with control ([2]; 0.1 % w/w dose in diet): -71% and -79%
CCCCCCCCCCCCCCc1cc2cc(C(=O)O)ccc2[nH]1 [Compound NN, 2-(n-tetradecyl)indole-5-carboxylic acid]	78%		
CCCCCCCCCCCCCCCCCCc1cc2cc(C(=O)O)ccc2[nH]1 [Compound T, 2-(n-octadecyl)indole-5-carboxylic acid]	35%		
CCCCCCCCCCCCCCCCc1cc2ccc(C(=O)O)cc2[nH]1 [Compound TT, 2-(n-hexadecyl)indole-6-carboxylic acid]	64%		
CCCCCCCCCCCCCCCc1cc2ccc(C(=O)O)cc2[nH]1 [D sodium salt]		-63% and -54%	% change in serum cholesterol compared with control ([2]; 0.2 % w/w dose in diet): -39% and -41%
